Read-outs that look alike come from different tables or passages of the source. Results are given in words; binding and its absence hold for the method and conditions named. In cells and extracts the contact can be indirect. Some binding calls cover weakened binding; strength is not graded here. For some of these results: Sequences can lack the tags named with a protein.
T1: MYC-STRA8 (1-393aa), Stimulated By Retinoic Acid Gene 8 (mouse) (UniProt P70278)
T1 sequence: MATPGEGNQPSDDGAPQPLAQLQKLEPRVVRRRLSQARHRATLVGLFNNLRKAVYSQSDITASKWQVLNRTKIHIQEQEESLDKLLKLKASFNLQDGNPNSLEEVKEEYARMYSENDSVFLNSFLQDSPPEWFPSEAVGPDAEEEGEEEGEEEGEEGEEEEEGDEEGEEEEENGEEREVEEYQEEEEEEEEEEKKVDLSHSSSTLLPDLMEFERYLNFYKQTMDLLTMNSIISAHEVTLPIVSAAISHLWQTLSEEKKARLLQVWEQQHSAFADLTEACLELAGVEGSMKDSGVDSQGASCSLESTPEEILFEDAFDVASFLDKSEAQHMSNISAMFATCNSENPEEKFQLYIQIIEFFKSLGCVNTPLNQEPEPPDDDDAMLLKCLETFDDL

Amino acid sequences for entries named in this document (tags omitted).
UniProt P17918: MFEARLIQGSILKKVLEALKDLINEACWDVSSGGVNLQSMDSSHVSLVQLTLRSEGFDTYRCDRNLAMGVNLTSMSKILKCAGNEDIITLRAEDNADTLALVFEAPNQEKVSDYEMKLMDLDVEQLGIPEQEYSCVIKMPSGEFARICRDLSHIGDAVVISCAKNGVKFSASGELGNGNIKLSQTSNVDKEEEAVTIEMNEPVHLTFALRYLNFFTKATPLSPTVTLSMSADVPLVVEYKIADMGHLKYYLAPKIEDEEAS

T2: MYC-STRA8 F1R1 (1aa-142aa) (mouse) (UniProt P70278)
T2 sequence: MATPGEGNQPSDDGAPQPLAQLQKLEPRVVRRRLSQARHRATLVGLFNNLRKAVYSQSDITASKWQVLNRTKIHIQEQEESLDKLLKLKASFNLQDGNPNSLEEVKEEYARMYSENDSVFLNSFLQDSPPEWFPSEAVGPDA

T3: MYC-STRA8 F1R2 (1aa-193aa) (mouse) (UniProt P70278)
T3 sequence: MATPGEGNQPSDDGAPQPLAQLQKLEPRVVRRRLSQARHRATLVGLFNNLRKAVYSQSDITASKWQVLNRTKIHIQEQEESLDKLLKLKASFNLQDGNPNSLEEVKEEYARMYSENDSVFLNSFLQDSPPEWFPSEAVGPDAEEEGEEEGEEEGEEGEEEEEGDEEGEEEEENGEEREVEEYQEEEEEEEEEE

T4: endogenous STRA8 of F9 cells (mouse (endogenous in F9)) (UniProt P70278)
T4 sequence: T1 sequence

B1: HA-SETD8 F1R1 (1aa-350aa), lysine methyltransferase 5A (protein, UniProt Q2YDW7 1-349)
chain: MARGRKMCKPRAVEAAAAAVAATAPGPEMVEQRGPGRPRSDGENVFAGQSKIYAYMSPNKCSAMRSPLQEENSVAHHEVKCPGKPLAGIYRKREEKRNTGNVIRSAVKSDEQKSKDTRRGPLAPFPNQKSEAAEPPKTPPPSCDSTNVAVAKQALKKSLKGKQAPRKKSQGKTQQNRKLTDFYPVRRSSRKSKAELQSEERKKNELIESGKEEGMKIDLIDGKGRGVIATKQFSRGDFVVEYHGDLIEITDAKKREALYVQDPSTGCYMYYFQYLSKTYCVDATQETNRLGRLINHSKCGNCQTKLHDIDGVPHLILIASRDIAAGEELLYDYGDRSKASIEAYPWLKH
B2: SETD8 in F9 cells (protein, UniProt Q2YDW7 1-349)
chain: B1 chain
B3: HA-SETD8 F1R2 (1aa-213aa) (domain or fragment, UniProt Q2YDW7 1-213)
chain: MARGRKMCKPRAVEAAAAAVAATAPGPEMVEQRGPGRPRSDGENVFAGQSKIYAYMSPNKCSAMRSPLQEENSVAHHEVKCPGKPLAGIYRKREEKRNTGNVIRSAVKSDEQKSKDTRRGPLAPFPNQKSEAAEPPKTPPPSCDSTNVAVAKQALKKSLKGKQAPRKKSQGKTQQNRKLTDFYPVRRSSRKSKAELQSEERKKNELIESGKEE
B4: HA-SETD8 F2R1 (214aa-350aa) (domain or fragment, UniProt Q2YDW7 214-349)
chain: GMKIDLIDGKGRGVIATKQFSRGDFVVEYHGDLIEITDAKKREALYVQDPSTGCYMYYFQYLSKTYCVDATQETNRLGRLINHSKCGNCQTKLHDIDGVPHLILIASRDIAAGEELLYDYGDRSKASIEAYPWLKH
B5: HA-SETD8 F2R3 (214aa-341aa) (domain or fragment, UniProt Q2YDW7 214-341)
chain: GMKIDLIDGKGRGVIATKQFSRGDFVVEYHGDLIEITDAKKREALYVQDPSTGCYMYYFQYLSKTYCVDATQETNRLGRLINHSKCGNCQTKLHDIDGVPHLILIASRDIAAGEELLYDYGDRSKASI
B6: HA-SETD8 F3R2 (100aa-213aa) (domain or fragment, UniProt Q2YDW7 100-213)
chain: GNVIRSAVKSDEQKSKDTRRGPLAPFPNQKSEAAEPPKTPPPSCDSTNVAVAKQALKKSLKGKQAPRKKSQGKTQQNRKLTDFYPVRRSSRKSKAELQSEERKKNELIESGKEE

Key:
[1] = biological target: T1, MYC-STRA8 (1-393aa), Stimulated By Retinoic Acid Gene 8 (mouse); experiment: co-IP; HEK-293T cells co-transfected with pCMV-MYC and pCMV-HA constructs; lysate, 1~2 μg antibody 4 h at 4°C, protein G overnight (Roche immunoprecipitation kit), Western blot
[2] = biological target: T1, MYC-STRA8 (1-393aa), Stimulated By Retinoic Acid Gene 8 (mouse); experiment: as above; remark: listed apart in the source
[3] = biological target: T2, MYC-STRA8 F1R1 (1aa-142aa) (mouse); experiment: as above
[4] = biological target: T3, MYC-STRA8 F1R2 (1aa-193aa) (mouse); experiment: as above
[5] = biological target: T4, endogenous STRA8 of F9 cells (mouse (endogenous in F9)); experiment: co-IP; F9 cells which express endogenous STRA8; lysate, antibody and protein G (Roche immunoprecipitation kit), Western blot

Row | Molecule | binding [1] | binding [2] | binding [3] | binding [4] | binding [5]
1 | HA-PCNA (from UniProt P17918 1-261) | binds |  |  |  | 
2 | B1 |  | binds | binds | binds | 
3 | B2 |  |  |  |  | binds
4 | B3 |  | binds | no binding | binds | 
5 | B4 |  | binds | no binding | binds | 
6 | B5 |  | no binding |  |  | 
7 | B6 |  | no binding |  |  | 

Reference: paper PMC7171306
